Laboratory results: the antibiotic and cytotoxicity screens of Wong et al. (2023)
Some of the results follow.

System: S. aureus RN4220
Experiment: growth inhibition call (relative growth <= 0.2)
Settings: 50 µM

Growth inhibition call, inactive:
C[C@@H]1CCCCO[C@H](CN(C)S(=O)(=O)c2cccs2)[C@H](C)CN([C@H](C)CO)C(=O)c2cc(NC(=O)Nc3ccccc3)ccc2O1
C[C@@H]1CCCCO[C@@H](CN(C)C(=O)CCC(F)(F)F)[C@@H](C)CN([C@H](C)CO)C(=O)c2cc(NC(=O)NC3CCCCC3)ccc2O1
c1cc(-c2nn[nH]n2)ccc1OCc1nn[nH]n1
CC(CCc1ccc(O)cc1)NCC(O)c1ccc(O)cc1.Cl (stereo not given)
C[C@H](CO)N1C[C@H](C)[C@@H](CN(C)Cc2ccc(Cl)c(Cl)c2)Oc2ccc(NS(=O)(=O)c3ccc(Cl)cc3)cc2CC1=O
O=C1C2C[C@H]3C=C[C@]2(CN1C1CC1)O3 (stereo not given in full)
c1csc(CNc2ccc(NCc3cccs3)cc2)c1
CCCNC(=O)Nc1ccc2c(c1)C(=O)N(C)C[C@H](OC)[C@@H](C)CN(Cc1ccc(-c3ccccn3)cc1)[C@H](C)CO2
COc1ccc(NC(=O)Nc2ccc3c(c2)C(=O)N([C@@H](C)CO)C[C@@H](C)[C@H](CN(C)Cc2ccc(C(F)(F)F)cc2)OCCCC[C@@H](C)O3)cc1
C[C@H]1CN([C@@H](C)CO)C(=O)Cc2cc(NS(C)(=O)=O)ccc2O[C@H]1CN(C)Cc1ccc(C(F)(F)F)cc1
COc1ccc(S(=O)(=O)N(C)C[C@@H]2OCCCC[C@H](C)Oc3ccc(NC(=O)Nc4ccccc4)cc3C(=O)N([C@H](C)CO)C[C@H]2C)cc1
C[C@H]1CCCCO[C@H](CN(C)C(=O)NC2CCCCC2)[C@@H](C)CN([C@@H](C)CO)C(=O)c2cc(NC(=O)Nc3ccc(C(F)(F)F)cc3)ccc2O1
Cc1noc(C)c1S(=O)(=O)Nc1ccc2c(c1)C(=O)N([C@H](C)CO)C[C@H](C)[C@H](CN(C)CC1CCCCC1)OCCCC[C@@H](C)O2
O=C(C[C@H]1CC[C@H](NC(=O)Nc2ccc3c(c2)OCO3)[C@H](CO)O1)NCCCN1CCOCC1
CCCCC(=O)OCC(=O)[C@]1(O)Cc2c(O)c3c(c(O)c2[C@@H](O[C@H]2C[C@H](NC(=O)C(F)(F)F)[C@H](O)[C@H](C)O2)C1)C(=O)c1c(OC)cccc1C3=O
C[C@@H]1CN([C@H](C)CO)C(=O)c2cccc(NS(=O)(=O)c3cn(C)cn3)c2O[C@H]1CN(C)Cc1ccc2c(c1)OCO2
C[C@H](CO)N1C[C@H](C)[C@H](CN(C)Cc2ccccc2)OCCCC[C@H](C)Oc2ccc(NC(=O)C3CCCCC3)cc2C1=O
NC(Cc1ccc(O)c(O)c1)C(=O)O (stereo not given)
CC(C)NC(=O)N(C)C[C@H]1OCCCC[C@H](C)Oc2ccc(NC(=O)C3CCCCC3)cc2C(=O)N([C@@H](C)CO)C[C@@H]1C
CSc1[nH]c(=O)[nH]c(=O)c1C#N
CCC[C@@H](O)C#Cc1cnc2c(c1)C(=O)N([C@H](C)CO)C[C@H](C)[C@H](CN(C)C(=O)Nc1ccc(F)cc1)O2
C[C@H](NC(=O)C[C@@H]1C[C@@H]2c3cc(NC(=O)Nc4ccc(C(F)(F)F)cc4)ccc3O[C@@H]2[C@@H](CO)O1)c1ccccc1
C[C@@H]1CCCCO[C@@H](CN(C)Cc2ccc3c(c2)OCO3)[C@H](C)CN([C@@H](C)CO)C(=O)c2cc(NC(=O)NC3CCCCC3)ccc2O1
O=C(C1=C[C@H](C2CC2)C[C@H](OCc2ccc(CO)cc2)O1)N1CCN(Cc2ccc3c(c2)OCO3)CC1
C[C@H]1CN([C@@H](C)CO)C(=O)Cc2cc(NS(=O)(=O)c3ccc(Cl)cc3)ccc2O[C@@H]1CN(C)S(=O)(=O)c1cn(C)cn1
COc1ccc(S(=O)(=O)Nc2ccc3c(c2)C(=O)N([C@@H](C)CO)C[C@H](C)[C@H](CN(C)S(=O)(=O)c2cccs2)O3)cc1
Nc1c(C(=O)O)cnc2nc(N3CCOCC3)nn12
C[C@@H]1CCCCO[C@H](CN(C)C(=O)c2ccccc2)[C@@H](C)CN([C@H](C)CO)C(=O)c2cc(NC(=O)Nc3ccc4c(c3)OCO4)ccc2O1
CO[C@@H](CN(C)C(=O)c1ccc2c(c1)OCO2)[C@@H](C)CN([C@@H](C)CO)S(=O)(=O)c1ccc(F)cc1
C[C@H]1CCCCO[C@H](CN(C)C(=O)Nc2cccc3ccccc23)[C@@H](C)CN([C@@H](C)CO)C(=O)c2cc(NC(=O)CCC(F)(F)F)ccc2O1
C[C@H](CO)N1C[C@H](C)[C@H](CN(C)S(=O)(=O)c2ccccc2)Oc2ncc(-c3cccc(C(=O)N(C)C)c3)cc2C1=O
Cc1ccc2sc(N(CCCN(C)C)C(=O)c3ccc(S(=O)(=O)N(C)Cc4ccccc4)cc3)nc2c1C
COc1ccc(-c2noc(CSc3nc4sc(C)c(C)c4c(=O)n3-c3ccccc3)n2)cc1OC
C[C@@H]1CN([C@H](C)CO)C(=O)c2cc(NS(=O)(=O)c3ccccc3)ccc2O[C@@H]1CN(C)Cc1ccc(Cl)c(Cl)c1
CN(Cc1cc(Br)cc(Br)c1N)C1CCCCC1.Cl
C[C@@H]1CN([C@@H](C)CO)C(=O)c2cc(NS(=O)(=O)c3ccccc3)ccc2O[C@H]1CN(C)C(=O)Nc1cccc2ccccc12
C[C@@H]1CN([C@H](C)CO)S(=O)(=O)c2ccc(C#CCN(C)C)cc2O[C@@H]1CN(C)S(C)(=O)=O
C[C@@H]1CN([C@@H](C)CO)C(=O)c2cccc(NS(=O)(=O)c3ccc(F)cc3)c2O[C@H]1CN(C)S(=O)(=O)c1cccs1
C[C@H](CO)N1C[C@H](C)[C@@H](CN(C)C(=O)Nc2cccc3ccccc23)Oc2ccc(NC(=O)Nc3ccccc3)cc2CC1=O
C[C@H]1CN([C@@H](C)CO)C(=O)c2cc(NC(=O)Cn3cnnn3)ccc2O[C@H]1CN(C)C(=O)NC1CCCCC1
